According to PubChem BioAssay AID1347073 (National Center for Advancing Translational Sciences (NCATS), 2019):
The whole screen tested about 45,000 compounds, of which about 200 (0.44%) were called active. Roughly 7% stayed inconclusive and do not appear here. Calls come from the whole dose curve; as a rule, active = well fitted activation curve with a large enough effect; inconclusive = small, poorly fitted or top-dose-only effect; inactive = no such curve, though single readings can be large or run the other way. Some of the results follow.

Assay: qHTS of TDP-43 Inhibitors: NCGC Sytravon Library Screen; note: nearly all actives have a fitted effect of over 55% in size; for growth rescue (activation): 0% is about no effect
Settings: yeast TDP-43 toxicity rescue, BacTiter-Glo growth, 24 h; series mostly up to 46.1 µM; growth rescue (activation): at the top concentration
Outline: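 TDP-43-expressing yeast, pregrown in raffinose, seeded at OD600 0.02 in galactose medium with compound for 24 hr at 30 deg C. Growth read by BacTiter-Glo luminescence, so rescue of toxicity appears as activation.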
Potency is the fitted concentration of half-maximal effect.

Row | SMILES | growth rescue (activation) | Potency
1 | O=C(O)c1ccc(CN2C[C@@H](CO)O[C@@H](n3cnc4c(NCc5ccc(F)cc5)ncnc43)C2)cc1 | inactive: 9.42% | –
2 | CC(=O)Nc1ccc(S(=O)(=O)Nc2ccc3c(c2)OCCO3)cc1 | inactive: -4.61% | –
3 | COc1ccc(OCC(=O)Nc2cc(S(=O)(=O)N3CCCCC3)ccc2OC)cc1 | inactive: 20.9% | –
4 | O=C(CCC1CCCN(C(=O)c2ccc3c(c2)OCO3)C1)N1CCN(c2ccccn2)CC1 (centres undefined) | inactive: 0.842% | –
5 | Cc1ccc2nc(-c3ccc(N4C(=NC(=O)CCC(=O)O)SC5CS(=O)(=O)CC54)cc3)sc2c1 (centres undefined) | inactive: 18.2% | –
6 | N/C(=N\OC(=O)c1ccc([N+](=O)[O-])cc1)c1cccnc1 | inactive: -7.61% | –
7 | O=C(NS(=O)(=O)Oc1cccc(F)c1)OC[C@@H]1CCCN2CCCCC12 (some centres undefined) | inactive: 1.07% | –
8 | CC1CCCN(CCCN2C(=O)C3C(C(=O)Nc4ccc(Cl)cc4)C4C=CC3(O4)C2C(=O)NC2CCCCC2)C1 (centres undefined) | inactive: 0.903% | –
9 | COc1ccc(N2C(=S)NC3c4cc(Cl)ccc4OC2(C)C3C(=O)N(C)C)cc1 (centres undefined) | inactive: 5.78% | –
10 | Cc1c(C(=O)Nc2ccc(Cc3ccncc3)cc2)cccc1[N+](=O)[O-] | inactive: 0.931% | –
11 | CCOC(=O)c1ccc(CC2SC(N)=NC2=O)cc1 (centres undefined) | inactive: -10.5% | –
12 | Fc1ccc2nc(N3CCCCC3)sc2c1 | inactive: -4.39% | –
13 | COc1ccccc1C(=O)NCCC(=O)NC1CCCCCC1 | inactive: 10.3% | –
14 | O=C(NC(=S)NCc1ccccc1)c1cccnc1 | inactive: 7.58% | –
15 | COCCNc1nc(NCc2ccc(NC(C)=O)cc2)c2sccc2n1 | inactive: -1.15% | –
16 | COc1ccc(NC(=O)c2oc3ccccc3c2CSC)cc1S(=O)(=O)N1CCOCC1 | inactive: 2.71% | –
17 | CC(=O)OCC(=O)Nc1ccccc1C | inactive: 4.11% | –
18 | Cc1ccc(CN(C)C(=O)c2c(C)nn(-c3ccccc3)c2C)cc1 | inactive: 2.94% | –
19 | Nc1nc(-c2ccccc2)c(N=Nc2ccccc2Cl)s1 | inactive: 0.638% | –
20 | COc1ccc(C)cc1NC(=O)c1ccc(CN2CCc3ccccc3C2)cc1 | inactive: 6.99% | –
21 | COc1ccccc1C(=O)NC(=O)CSc1nc2nc(C)cc(C)n2n1 | inactive: 18% | –
22 | O=C1C(Cc2ccccc2)SC(=Nc2ccccc2)N1c1ccccc1 (centres undefined) | inactive: 10.9% | –

Row | SMILES | growth rescue (activation) | Potency
23 | Cn1cccc1C(=O)NCc1ccc(Cl)cc1 | inactive: 26.6% | –
24 | O=C(Nc1cccc(Cl)c1Cl)c1csc([C@@H]2O[C@H](CO)[C@@H](O)[C@H]2O)n1 | inactive: 0.463% | –
25 | O=C(Cc1ccc(Br)cc1)OCC(=O)N1CCCCCC1 | inactive: 24.2% | –
26 | COc1ccc(CNC(=O)C(CCSC)NS(=O)(=O)c2ccccc2F)cc1 (centres undefined) | inactive: 16.3% | –
27 | CC1CN(C2=N/C(=C/c3ccc4c(c3)OCO4)C(=O)N2)CC(C)O1 (centres undefined) | inactive: 1.7% | –
28 | Nc1nnc(SCC(=O)OCc2ccc(F)cc2)s1 | inactive: -12.9% | –
29 | CCOC(=O)NC(=O)CSc1ccc(C)cc1C | inactive: 22.6% | –
30 | Cc1cnc(NC(=O)C2(C)CCN2C(=O)C(C)C)s1 (centres undefined) | inactive: 5.36% | –
31 | O=C(NNc1c2ccccc2nc2ccccc12)c1ccccc1O | inactive: 3.96% | –
32 | Cn1nc(C(=O)NCC(c2cccs2)N2CCOCC2)c2ccccc2c1=O (centres undefined) | inactive: -10.3% | –
33 | O=C1c2ccccc2C2(c3ccc(F)cc3)NCCN12 (centres undefined) | inactive: 3.68% | –
34 | CCCn1c(C(C)C)n[nH]c1=S | inactive: -2.65% | –
35 | CCC(C)(C)NC(=O)C(c1cccn1C)N(C(=O)Cn1nnc2ccccc21)c1ccccc1OC (centres undefined) | inactive: 14.8% | –
36 | CCCOc1ccc(C(=O)Nc2ccc(NC(=O)c3cccs3)cc2)cc1 | inactive: 7.71% | –
37 | O=C1CSC(c2cn(-c3ccccc3)nc2-c2ccccc2)N1Cc1ccco1 (centres undefined) | inactive: 0.915% | –
38 | Cc1ccc(S(=O)(=O)N2CCN(C(C)C(=O)NCC(C)c3ccccc3)CC2)cc1 (centres undefined) | inactive: 18.1% | –
39 | CCOc1ccc(CNc2ccc(S(N)(=O)=O)cc2)cc1 | inactive: -21.2% | –
40 | CCNC(=O)C1(C)CCCN(Cc2csc(-c3ccccc3)n2)C1 (centres undefined) | inactive: 21.7% | –
41 | Cn1c(SCC(=O)N/N=C/C=C/c2ccccc2[N+](=O)[O-])nc2ccccc21 | inactive: 17.2% | –
42 | CC(C)CCc1noc(CN2CCN(CC(=O)NC(C)C)CC2)n1 | inactive: 21.1% | –
43 | COc1ccc(CCNC(=O)CSc2nnnn2Cc2ccc3c(c2)OCO3)cc1OC | inactive: -28.8% | –
44 | COCCn1c(C)cc(C(=O)COC(=O)/C=C/c2ccc(OC)cc2OC)c1C | inactive: 15.3% | –

Row | SMILES | growth rescue (activation) | Potency
45 | CCN=C1S/C(=C\c2cn(CC(=O)NCc3ccco3)c3ccccc23)C(=O)N1CC | inactive: 20.3% | –
46 | CN(Cc1ccncn1)C(=O)CC1C(=O)NCCN1Cc1cccc(Oc2ccccc2)c1 (centres undefined) | inactive: 5.64% | –
47 | COc1ccc(CC(=O)NC2CCSc3ccccc32)c(OC)c1 (centres undefined) | inactive: 27.5% | –
48 | N#CC1=C(N)Nc2nc3ccccc3n2C1c1ccc(Cl)cc1 (centres undefined) | inactive: 11.3% | –
49 | OCC1CCN(Cc2nc(Cc3ccccc3Cl)no2)CC1 | inactive: 0.263% | –
50 | O=C1CCC(=O)N1N1C(=O)C2C3c4ccccc4C(c4ccccc43)C2C1=O (centres undefined) | inactive: 0.461% | –
51 | O=C(CN1C(=O)NC2(CCCCCCC2)C1=O)NCc1cccs1 | inactive: 18% | –
52 | COc1ccccc1N/C(N)=N/c1nc(C(F)(F)F)cc(=O)[nH]1 | inactive: 11% | –
53 | COc1ccccc1NS(=O)(=O)c1cc(NC(=O)c2ccncc2)ccc1N1CCOCC1 | inactive: 4.68% | –
54 | Cc1cccc(Nc2nnc(SCC(=O)Nc3ccccc3[N+](=O)[O-])s2)c1C | – | active: 17.8 µM
55 | O=CN1CCN(S(=O)(=O)c2ccc(Cl)c(C(=O)O)c2)CC1 | inactive: -1.87% | –
56 | COc1cccc(C(=O)C2CCCN(Cc3cccn3-c3cccnc3)C2)c1 (centres undefined) | inactive: 5.75% | –
57 | CC(=O)c1cccc(CN2CCC(n3nccc3NC(=O)c3ccc4c(c3)OCO4)CC2)c1 | inactive: 14.8% | –
58 | COc1cccc(NC(=O)COC(=O)c2sccc2C)c1 | inactive: 26.9% | –
59 | O=C1NC2=C(C(=O)CCC2)C(c2ccccc2[N+](=O)[O-])N1 (centres undefined) | inactive: 14% | –
60 | NS(=O)(=O)c1ccc(CNc2ncnc3sccc23)cc1 | inactive: 14.7% | –
61 | COC(=O)c1cc(C(C)=O)c(C)[nH]c1=O | inactive: 11.9% | –
62 | NS(=O)(=O)c1cccc(NC(=O)CC23CC4CC(CC(Br)(C4)C2)C3)c1 | inactive: -7.42% | –
63 | O=C(NCCNC(=O)c1ccccn1)c1ccccc1 | inactive: 1.86% | –
64 | CCCCOc1ccc(NC(=O)CSc2cccc3cccnc23)cc1 | inactive: 20.1% | –
65 | Cc1ccc(NS(=O)(=O)c2cccc(C(=O)NNC(=O)NC3CCCCC3)c2)c(C)c1 | inactive: 14.7% | –
66 | COc1ccccc1C(=O)OCc1nc(N)nc(Nc2ccccc2C)n1 | inactive: 7.37% | –

Row | SMILES | growth rescue (activation) | Potency
67 | CCOC(=O)C1(CCCc2ccccc2)CCN(C(=O)CCN2CCCCC2=O)CC1 | inactive: 8.42% | –
68 | Cc1ccc(-n2nnnc2SCC(=O)Nc2cccnc2Cl)cc1 | inactive: -3.33% | –
69 | CCCCN1C=CC(=C2C(=O)c3ccccc3C2=O)C=C1 | inactive: -30.3% | –
70 | Cc1occc1-c1n[nH]c(=S)n1-c1ccccc1 | inactive: 11.5% | –
71 | CCOC(=O)C(NC(=O)Nc1ccc(C(N)=O)cc1)(c1ccccc1)C(F)(F)F (centres undefined) | inactive: 14.9% | –
72 | COCCN1CCN(C(=O)c2ccc3oc(CCCc4ccccc4)nc3c2)CC1 | inactive: 4.19% | –
73 | CCOc1ccc(S(=O)(=O)N2CCC(C(=O)NCc3ccccn3)CC2)cc1 | inactive: 8.04% | –
74 | C#Cc1cccc(Nc2nc(NCc3ccccc3)nc3ccsc23)c1 | inactive: 21.3% | –
75 | Cc1cccc(NC(=O)COC(=O)CN2CCCCCC2=O)c1C | inactive: -25.1% | –
76 | COC(=O)Nc1ccc(S(=O)(=O)N2CCCC(C(=O)O)C2)cc1 (centres undefined) | inactive: -16.5% | –
77 | CC(=NNC(=O)CSc1nc2ccccc2o1)c1ccco1 | inactive: 23.9% | –
78 | COc1cccc(/C=N/NC(=O)CCc2n[nH]c(=O)[nH]c2=O)c1O | inactive: -10.2% | –
79 | CCOC(=O)c1nn(-c2ccc(F)cc2)c(=O)c2c(N)scc12 | inactive: 15.2% | –
80 | COc1ccc(-c2cc(C(F)(F)F)nc(N3CCN(c4ccc(F)cc4)CC3)n2)cc1OC | inactive: 4.73% | –
81 | COc1cc2c(cc1OC)CN(C(=O)c1ccc(S(=O)(=O)N3CCCCCC3)cc1)CC2 | inactive: 25.6% | –
82 | CC1=CC(C)(C)Nc2ccc(OC(=O)CN3C(=O)C4CCCCC4C3=O)cc21 (centres undefined) | inactive: 17.1% | –
83 | COc1ccc([N+](=O)[O-])cc1NC(=O)C1CCCO1 (centres undefined) | inactive: -12.5% | –
84 | Cc1ccccc1CN1C[C@@H]2C[C@@H](c3cn(C)nc3-c3ccccc3)N3CCC[C@@]23C1=O | inactive: -3.66% | –
85 | CCOC(=O)C1(C)CCCN(C(=O)CCc2ccccc2)C1 (centres undefined) | inactive: 15% | –
86 | Cc1nc(N)sc1C(=O)N/N=C/c1cccnc1 | inactive: -3.23% | –
87 | Cc1ccccc1P(=O)(CO)c1ccccc1C | inactive: -15.5% | –
88 | Cc1nn(C(C)(C)C)c(OC(=O)CC(C)C)c1S(=O)(=O)c1ccccc1 | inactive: -11% | –

Row | SMILES | growth rescue (activation) | Potency
89 | CCOC(=O)c1sc2nc(C)nc(SCC(=O)NC3CCS(=O)(=O)C3)c2c1C (centres undefined) | inactive: -4.47% | –
90 | C/C(CC(=O)Nc1cc(C)ccn1)=N\NC(=O)c1ccc(C(C)(C)C)cc1 | inactive: 17% | –
91 | COc1ccc(C(C)NCCC(c2ccc(OC(C)C)cc2)c2ccccc2OC)cc1 (centres undefined) | inactive: 11.9% | –
92 | CCc1ccc(NC(=O)CCC(=O)c2ccc(C)cc2)cc1 | inactive: 2.36% | –
93 | NS(=O)(=O)c1ccc(NC(=O)CSc2nnc(-c3ccc(O)cc3)o2)cc1 | inactive: -2.69% | –
94 | Nc1c(C(=O)CSc2nnnn2-c2ccccc2)c(=O)[nH]c(=O)n1C1CC1 | inactive: 0.269% | –
95 | Cc1ccc(/C=C/C(=O)c2ccc(O)cc2)cc1 | – | active: 15.8 µM
96 | O=C(NCCc1ccccc1)c1ccc(-c2cccnc2)c2ccoc12 | inactive: 19.5% | –
97 | Cc1ccc(C(=O)NCC(c2ccc(F)cc2)N2CCOCC2)s1 (centres undefined) | inactive: 11.2% | –
98 | CC(O)(c1cccnc1)c1nc(-c2cc(F)cc(F)c2)cs1 (centres undefined) | inactive: 6.18% | –
99 | Cc1nc(NC(=O)c2ccccc2)sc1-c1csc(Nc2ccc(C(=O)O)cc2)n1 | inactive: -12.7% | –
100 | Cc1cc(C)n(CC(=O)Nc2ccc3c(c2)OCO3)c(=O)c1C#N | inactive: 8.87% | –
101 | Cc1cccc(OCC(=O)NCC(c2ccco2)N2CCCC2)c1 (centres undefined) | inactive: 22.5% | –
102 | COc1ccc(CNC(=S)NC2CCCC2)cc1 | inactive: -1.93% | –
103 | COCCNC(=O)C(c1ccc(F)cc1)N(C(=O)CCC(=O)Nc1ccccn1)c1cccc(C)c1 (centres undefined) | inactive: 6.26% | –
104 | Cc1ccc(S(=O)(=O)N/N=C/c2ccc(O)cc2O)cc1[N+](=O)[O-] | inactive: 16.9% | –
105 | CN(C(=O)COC(=O)c1n[nH]c2ccccc12)c1ccccc1 | inactive: 1.99% | –
106 | COc1ccc(Br)cc1CN1CCCCCC1 | inactive: -13.9% | –
107 | CC(=O)Nc1ccc(-c2csc(NC(=O)Cc3ccccc3F)n2)cc1 | inactive: -3.92% | –
108 | OC(CNc1nc(-c2cccnc2)nc2ccccc12)c1ccccc1 (centres undefined) | inactive: 3.23% | –
109 | O=C(/C=C/c1cccc(F)c1)Nc1ccc(S(=O)(=O)N2CCOCC2)cc1 | inactive: 2.31% | –
